The source of these data is paper doi:10.1101/212704 (bioRxiv, 2017).

For one assay, the target named is T1, GST-MAD1-NTD (human, UniProt Q9Y6D9 1-485).
T1 sequence (looked up): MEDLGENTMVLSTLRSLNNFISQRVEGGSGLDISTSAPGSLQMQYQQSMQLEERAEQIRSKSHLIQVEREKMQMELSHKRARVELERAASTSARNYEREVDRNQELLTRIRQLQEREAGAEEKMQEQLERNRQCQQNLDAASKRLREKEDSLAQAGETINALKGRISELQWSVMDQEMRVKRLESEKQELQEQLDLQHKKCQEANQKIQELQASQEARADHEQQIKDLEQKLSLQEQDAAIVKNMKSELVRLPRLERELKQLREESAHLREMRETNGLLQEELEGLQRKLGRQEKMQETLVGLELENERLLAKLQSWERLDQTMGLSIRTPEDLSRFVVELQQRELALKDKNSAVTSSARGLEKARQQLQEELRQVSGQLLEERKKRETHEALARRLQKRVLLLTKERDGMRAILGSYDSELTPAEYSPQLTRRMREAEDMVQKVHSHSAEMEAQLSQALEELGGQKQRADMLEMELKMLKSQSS
The assay can be described thus: pull-down.

The next assay has as its target T2, GST-tagged MPS1 (UniProt P33981 1-857).
T2 sequence (looked up): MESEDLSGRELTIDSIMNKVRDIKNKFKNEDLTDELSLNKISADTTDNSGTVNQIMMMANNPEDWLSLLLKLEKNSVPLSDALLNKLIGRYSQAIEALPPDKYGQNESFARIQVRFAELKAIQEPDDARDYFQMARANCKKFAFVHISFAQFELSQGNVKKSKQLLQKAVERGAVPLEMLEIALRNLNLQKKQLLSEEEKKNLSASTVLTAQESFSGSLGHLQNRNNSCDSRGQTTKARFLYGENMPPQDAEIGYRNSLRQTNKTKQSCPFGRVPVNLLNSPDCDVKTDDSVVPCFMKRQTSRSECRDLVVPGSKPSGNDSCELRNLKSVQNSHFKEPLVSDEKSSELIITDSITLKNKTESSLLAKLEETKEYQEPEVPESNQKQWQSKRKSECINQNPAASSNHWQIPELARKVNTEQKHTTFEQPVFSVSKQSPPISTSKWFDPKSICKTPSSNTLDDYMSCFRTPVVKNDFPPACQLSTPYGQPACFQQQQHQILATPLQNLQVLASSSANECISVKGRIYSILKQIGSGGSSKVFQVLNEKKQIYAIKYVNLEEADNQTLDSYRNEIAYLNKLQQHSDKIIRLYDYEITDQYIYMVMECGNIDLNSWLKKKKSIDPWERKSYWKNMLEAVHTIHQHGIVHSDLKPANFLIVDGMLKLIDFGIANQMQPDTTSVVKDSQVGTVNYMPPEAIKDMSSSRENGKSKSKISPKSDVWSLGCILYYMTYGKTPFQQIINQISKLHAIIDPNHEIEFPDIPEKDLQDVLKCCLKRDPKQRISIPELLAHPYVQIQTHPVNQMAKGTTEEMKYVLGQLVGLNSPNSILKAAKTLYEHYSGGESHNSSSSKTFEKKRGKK
Description: pull-down.

B1: 6×His-tagged MAD[…]D (natural protein)
chain: not shown
As to B1, in the assay with GST-MAD1-NTD, the binding result was “binds”.

B2: untagged MAD2^L13A (natural protein)
chain: not shown
With B2, the binding result with GST-MAD1-NTD is given as “binds”.

B3: His-tagged MAD2^L13A (natural protein)
chain: not shown
On to B3, for which the binding result with GST-tagged MPS1 is “binds”.
